# Experimental data taken from the supplement of paper PMC8728848.
# This is one part of the list.
# Experiments:
# Test in all cases: glycan array binding signal (z-score within array); higher = stronger binding
# Conditions in all cases: glycan notation: IUPAC condensed, linker removed
# [1] = biological target: Neu5Ac(a2-6)Gal(b1-4)GlcNAc(b1-6)GalNAc
# How it was run: (§1)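 Columns mapping to the same glycan were averaged after glycan names were converted to IUPAC-condensed notation. The data come from 3228 arrays in the Consortium for Functional Glycomics database, limited to those with an available protein sequence. Binding is reported as a within-array Z-score averaged across arrays of one protein sequence and across linkers.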
# [2] = biological target: Neu5Ac(a2-6)Gal(b1-4)GlcNAc(b1-6)[Gal(b1-3)GlcNAc(b1-3)]Gal(b1-4)Glc
# How it was run: as §1
# [3] = biological target: Neu5Ac(a2-6)Gal(b1-4)GlcNAc(b1-6)[Gal(b1-3)]GalNAc
# How it was run: as §1
# [4] = biological target: Neu5Ac(a2-6)Gal(b1-4)GlcNAc6S
# How it was run: as §1
# [5] = biological target: Neu5Ac(a2-6)GalNAc
# How it was run: as §1
# [6] = biological target: Neu5Ac(a2-6)GalNAc(b1-4)GlcNAc
# How it was run: as §1
# [7] = biological target: Neu5Ac(a2-6)GalNAc(b1-4)GlcNAc6S
# How it was run: as §1
# [8] = biological target: Neu5Ac(a2-6)GlcNAc(b1-4)GlcNAc
# How it was run: as §1
# [9] = biological target: Neu5Ac(a2-6)GlcNAc(b1-4)GlcNAc(b1-4)GlcNAc
# How it was run: as §1
# [10] = biological target: Neu5Ac(a2-8)Neu5Ac
# How it was run: as §1
# [11] = biological target: Neu5Ac(a2-8)Neu5Ac(a2-3)Gal(b1-3)GalNAc(b1-4)[Neu5Ac(a2-3)]Gal(b1-4)Glc
# How it was run: as §1
# [12] = biological target: Neu5Ac(a2-8)Neu5Ac(a2-3)Gal(b1-3)GalNAc(b1-4)[Neu5Ac(a2-8)Neu5Ac(a2-3)]Gal(b1-4)Glc
# How it was run: as §1
# [13] = biological target: Neu5Ac(a2-8)Neu5Ac(a2-3)Gal(b1-4)Glc
# How it was run: as §1
# [14] = biological target: Neu5Ac(a2-8)Neu5Ac(a2-3)Gal(b1-4)GlcNAc
# How it was run: as §1
# [15] = biological target: Neu5Ac(a2-8)Neu5Ac(a2-3)[Gal(b1-3)GalNAc(b1-4)]Gal(b1-4)Glc
# How it was run: as §1
# [16] = biological target: Neu5Ac(a2-8)Neu5Ac(a2-3)[GalNAc(b1-4)]Gal(b1-4)Glc
# How it was run: as §1
# [17] = biological target: Neu5Ac(a2-8)Neu5Ac(a2-8)Neu5Ac
# How it was run: as §1
# [18] = biological target: Neu5Ac(a2-8)Neu5Ac(a2-8)Neu5Ac(a2-3)Gal(b1-4)Glc
# How it was run: as §1
# [19] = biological target: Neu5Ac(a2-8)Neu5Ac(a2-8)Neu5Ac(a2-3)[Gal(b1-3)GalNAc(b1-4)]Gal(b1-4)Glc
# How it was run: as §1
# [20] = biological target: Neu5Ac(a2-8)Neu5Ac(a2-8)Neu5Ac(a2-3)[GalNAc(b1-4)]Gal(b1-4)Glc
# How it was run: as §1
# [21] = biological target: Neu5Ac(a2-8)Neu5Ac(a2-8)Neu5Ac(a2-8)Neu5Ac(a2-3)[GalNAc(b1-4)]Gal(b1-4)Glc
# How it was run: as §1
# [22] = biological target: Neu5Ac(a2-8)Neu5Gc(a2-3)Gal(b1-4)GlcNAc
# How it was run: as §1
# [23] = biological target: Neu5Ac(b2-6)Gal(b1-4)GlcNAc
# How it was run: as §1
# [24] = biological target: Neu5Ac(b2-6)GalNAc
# How it was run: as §1
# [25] = biological target: Neu5Ac9Ac(a2-3)Gal(b1-3)GlcNAc
# How it was run: as §1
# [26] = biological target: Neu5Ac9Ac(a2-3)Gal(b1-4)GlcNAc
# How it was run: as §1
# [27] = biological target: Neu5Ac9Ac(a2-6)Gal(b1-4)GlcNAc
# How it was run: as §1
# [28] = biological target: Neu5Gc(a2-3)Gal(b1-3)GlcNAc
# How it was run: as §1
# [29] = biological target: Neu5Gc(a2-3)Gal(b1-3)[Fuc(a1-4)]GlcNAc
# How it was run: as §1
# [30] = biological target: Neu5Gc(a2-3)Gal(b1-4)Glc
# How it was run: as §1
# [31] = biological target: Neu5Gc(a2-3)Gal(b1-4)GlcNAc
# How it was run: as §1
# [32] = biological target: Neu5Gc(a2-3)Gal(b1-4)GlcNAc(b1-3)Gal(b1-4)GlcNAc(b1-2)Man(a1-3)[Neu5Gc(a2-3)Gal(b1-4)GlcNAc(b1-3)Gal(b1-4)GlcNAc(b1-2)Man(a1-6)]Man(b1-4)GlcNAc(b1-4)GlcNAc
# How it was run: as §1
# [33] = biological target: Neu5Gc(a2-3)Gal(b1-4)[Fuc(a1-3)]GlcNAc
# How it was run: as §1
# [34] = biological target: Neu5Gc(a2-6)Gal(b1-4)GlcNAc
# How it was run: as §1
# [35] = biological target: Neu5Gc(a2-6)GalNAc
# How it was run: as §1
# [36] = biological target: Neu5Gc(a2-8)Neu5Ac(a2-3)Gal(b1-4)GlcNAc
# How it was run: as §1
# [37] = biological target: Neu5Gc(a2-8)Neu5Gc(a2-3)Gal(b1-4)GlcNAc
# How it was run: as §1
# [38] = biological target: Neu5Gc(a2-8)Neu5Gc(a2-3)Gal(b1-4)GlcNAc(b1-3)Gal(b1-4)GlcNAc
# How it was run: as §1
binder,measurement,setting,value
FGFR2-Fc (protein) MVNVTDAISSGDDEDDTDGAEDFVSENSNNKRAPYWTNTEKMEKRLHAVPAANTVKFRCPAGGNPMPTMRWLKNGKEFKQEHRIGGYKVRNQHWSLIMESVVPSDKGNYTCVVENEYGSINHTYHLDVVERSPHRPILQAGLPANASTVVGGDVEFVCKVYSDAQPHIQWIKHVEKNGSKYGPDGLPYLKVLKHSGINSSNAEVLALFNVTEADAGEYICKVSNYIGQANQSAWLTVLPKQQAPGREKEITASPDYLETRPLEQKLISEEDLAANDILDYKDDDDKV,glycan array binding signal (z-score),[1],-0.19
same,glycan array binding signal (z-score),[2],0.027
same,glycan array binding signal (z-score),[3],-0.282
same,glycan array binding signal (z-score),[4],-0.724
same,glycan array binding signal (z-score),[5],0.386
same,glycan array binding signal (z-score),[6],-0.576
same,glycan array binding signal (z-score),[7],0.196
same,glycan array binding signal (z-score),[8],0.304
same,glycan array binding signal (z-score),[9],-0.641
same,glycan array binding signal (z-score),[10],-0.318
same,glycan array binding signal (z-score),[11],-0.105
same,glycan array binding signal (z-score),[12],0.38
same,glycan array binding signal (z-score),[13],-0.492
same,glycan array binding signal (z-score),[14],-0.139
same,glycan array binding signal (z-score),[15],0.18
same,glycan array binding signal (z-score),[16],0.472
same,glycan array binding signal (z-score),[17],-0.076
same,glycan array binding signal (z-score),[18],-0.306
same,glycan array binding signal (z-score),[19],0.572
same,glycan array binding signal (z-score),[20],0.201
same,glycan array binding signal (z-score),[21],0.963
same,glycan array binding signal (z-score),[22],-0.614
same,glycan array binding signal (z-score),[23],0.098
same,glycan array binding signal (z-score),[24],-0.477
same,glycan array binding signal (z-score),[25],0.103
same,glycan array binding signal (z-score),[26],-0.358
same,glycan array binding signal (z-score),[27],-0.013
same,glycan array binding signal (z-score),[28],-0.068
same,glycan array binding signal (z-score),[29],0.172
same,glycan array binding signal (z-score),[30],-0.06
same,glycan array binding signal (z-score),[31],0.455
same,glycan array binding signal (z-score),[32],-0.057
same,glycan array binding signal (z-score),[33],0.278
same,glycan array binding signal (z-score),[34],0.416
same,glycan array binding signal (z-score),[35],-0.597
same,glycan array binding signal (z-score),[36],0.007
same,glycan array binding signal (z-score),[37],-0.298
same,glycan array binding signal (z-score),[38],-0.223
